# Measured values taken from the supplement of paper PMC11417369.
# ± gives the standard deviation of the averaged measurements. The list shows a part of the results.
# System: PfAP2-EXP AP2 domain (GST-tagged)
# Test: gcPBM binding intensity (ln(normalized median fluorescence intensity)); higher = stronger DNA binding
# In short: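 In this array assay, P. falciparum DNA-binding domains with a GST tag, expressed in E. coli, were applied for 1 h to primer-extended double-stranded 36-bp intergenic genomic probes and negative controls on an Agilent 4 × 180k array. Bound protein was visualised with Alexa488 anti-GST antibody at 488 nm. Binding intensity is the highest Masliner-normalised natural-log median intensity across replicate spots of either probe orientation.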
row,Sequence,gcPBM binding intensity (ln)
1,CGCAAAACAATGATACGTACATATATATATATATAT [XGTACX_site5883],10.3 ± 0.33
2,ATATTCTCTTAAATATGTACGTATGTATATATATAT [XGTACX_site5885],9.68 ± 0.16
3,ATTCTTAAATGTGGTTGTACATATTATCACCTTTAA [XGTACX_site8188],8.56 ± 0.35
4,TTTTTAATTTTATATACACACATAAAAGATATGAAG [CACACA_site7470],8.24 ± 0.38
5,AATGTAAAGAACAAAACATGCAACTAGTTTACTTTT [TGCATGCA_site841],8.73 ± 0.42
6,TAATTCTTTATTTTTCGTACGTAAAACAAAAAATAT [XGTACX_site862],8.44 ± 0.38
7,TAGAAAAAAGATAGCACACACGGCCCAATATATATA [CACACA_site5354],8.8 ± 0.23
8,TAAGTATATAAAATTACACACTATTTTTTTTCAAGT [CACACA_site1792],8.13 ± 0.39
9,TCGAATATCTTATAGGTGCATCATAAATACATATGT,8.69 ± 0.28
10,TTAATTTCGAATTATTGTACATTAATATATCTACAG [XGTACX_site3314],8.54 ± 0.44
11,AAAACAAATAGACACGCACACAAAAAAAAAAAAAAA [CACACA_site801],8.31 ± 0.51
12,ATATATATATATATATGTACATAAATATAAATTTAA [XGTACX_site8715],10.2 ± 0.24
13,GAATAAAAAAAAAAAAAAATTTATTTTATAATAAAA [CACACA_negctrl_site1514],7.95 ± 0.57
14,ATGCAATAATAATGGAGTACATATTAATATTGATCA [XGTACX_site2312],8.86 ± 0.4
15,CCTTTTGGATGAAAGTGTACAGGTGAGAAAAATTCC [XGTACX_site3358],8.75 ± 0.35
16,AAAAAATATATTAAGGCACACACATACATATATATA [CACACA_site9239],8.79 ± 0.3
17,TTTGTTGGTATGGTTACACACATTTAGGAAATAAAA [CACACA_site1411],8.36 ± 0.33
18,TCTTATAAATTAAATATAAAAAAAAAAAAAAAAAAA [XGTACX_negctrl_site77],7.8 ± 0.4
19,AGTATTTTGTTTATCACACATATTGGAATTTTCAAT [CACACA_site4686],8.51 ± 0.21
20,AAAATTATACACACACGTACATATAAATAGAAATAT [XGTACX_site1753],8.77 ± 0.5
21,AAAATAATTCAATGTAGTACAATACAAATTGAGAGA [XGTACX_site5991],8.56 ± 0.29
22,AAAAAAAAAAAAAATAAATAAATAAATAAATATATA [GTGCAC_negctrl_site382],8.14 ± 0.67
23,CCTTTTTATTTTTGTAGTACTACATATACATATCTG [XGTACX_site7791],8.96 ± 0.45

row,Sequence,gcPBM binding intensity (ln)
1,AAATGGACAGTATAAAAATGGAGAATATAAAAATTT [CACACA_negctrl_site889],8.71 ± 0.43
2,GGTGTTTTTCACAGATGTACACAAATAAAAAAGAAA [XGTACX_site4454],8.73 ± 0.46
3,TATATATAAAAAAAAAGTACATATAATATAATATTT [XGTACX_site7902],8.41 ± 0.28
4,TATTCAAAGAAAAACTGTACGTGTAGCAAACGTCAT [XGTACX_site7713],8.71 ± 0.39
5,ATATTAAAAAAATATAAACACACAAAAAAAAAATAT [CACACA_site8283],8.83 ± 0.47
6,GACCCCATATACATATGTACATACATAATATATATA [XGTACX_site1817],9.04 ± 0.5
7,TTTTTATAACAGCTTAGTACATATAAGAATTCTTGC [XGTACX_site5890],8.62 ± 0.5
8,AATGTACGCATATACACACACATAAATAGATACGTA [CACACA_site3406],8.6 ± 0.51
9,AATAGTTAAATACATACATGCATTCATATAATATAT [TGCATGCA_site433],8.63 ± 0.43
10,TAATTAAGAATATATAGTACATAGTTGAAAAACTTT [XGTACX_site6359],8.41 ± 0.33
11,AAGATAAAAATATGCACACATATATATATATATATA [CACACA_site404],10.1 ± 0.35
12,AACGAAAACACTACGTGTACCAAACGTCCTACCAAC [XGTACX_site257],8.62 ± 0.49
13,TTCAAAAAATATATCTGTACAAATTATGTAGATGAA [XGTACX_site5522],8.49 ± 0.37
14,TTTTTTTTTTTTTTTTTTTTACGATATATTTTAAAA [XGTACX_negctrl_site401],8.03 ± 0.67
15,TTTTTACTTATTTATTATGTACAATTTCTTCTTTCT [CACACA_negctrl_site264],8.62 ± 0.42
16,TAGATCATAACAATTGCACACATTTGCATTTATATT [CACACA_site1562],8.54 ± 0.22
17,CATATGTTATATGTAGTGCATTACTATAGGATTTAT [GTGCAC_site9860],8.82 ± 0.014
18,TATTTTGCAAAATGTGCATGTTGTGTATTATGTGAC [TGCATGCA_site59],9.2 ± 0.099
19,ATATATAATATTGGTGGTACAAGGGTATTTTATATT [XGTACX_site8215],8.61 ± 0.44
20,TATAATATACTATGTGGTACATATATATATTTATAG [XGTACX_site4556],8.12 ± 0.26
21,ATTATAATATATATATGTACATATATATATAATACT [XGTACX_site5092],8.49 ± 0.34
22,GTATAATTGGAAATTACACACCTTAGAATGTAACAT [CACACA_site4059],8.22 ± 0.35
23,TCATTTATTTTTCTTTGTACACAAAAGTTTTTATGT [XGTACX_site690],8.82 ± 0.33

row,Sequence,gcPBM binding intensity (ln)
1,TATTCTAAGATAAGTGGTACTTATATATAATATATA [XGTACX_site8316],8.13 ± 0.4
2,TGGTATGCAATATTGGTGCGTATATATTTTAAAGGG,8.96 ± 0.23
3,TATTTTTAATTTTTTAATGGTTTAATATTTTTATAT [CACACA_negctrl_site1186],8.18 ± 0.39
4,ATATATATATATATATGTACATAAACATATATATAT [XGTACX_site1064],10.2 ± 0.21
5,TCTTTAGCTTCTTCTTTTTTTTTTTTTTTTTTTTTT [XGTACX_negctrl_site518],8.71 ± 0.24
6,TAGATGTAAGTACATACACACATATATAAATAAATA [CACACA_site8528],8.65 ± 0.34
7,AAAAAACAAATAAGTAAACACACATATATAATATAT [CACACA_site8830],8.82 ± 0.38
8,CTAATTGTTATTTTGTGTACTTATCATTCGAAATAT [XGTACX_site7963],8.81 ± 0.35
9,ATATATATTTTAATTACACACAAAAAAAAAAAAAAA [CACACA_site4778],8.23 ± 0.45
10,TTATATATTTTTAGGTGTACTTTTTTTTTTTTTTTT [XGTACX_site8164],8.38 ± 0.36
11,AAAATAATGAAATGAAAAAAAAAAATTTAGATTCTA [CACACA_negctrl_site1385],8.28 ± 0.51
12,AAAAAAAAAAAAAATACACACATATTTTATAGGGGA [CACACA_site3261],8.32 ± 0.42
13,TATTTTTTGAAAAGTTCACACATCCAACTCGAGTTG [CACACA_site4412],8.62 ± 0.46
14,GTCATATATTTATGTACACACATATATATATTTATA [CACACA_site4911],8.48 ± 0.3
15,ATATATATTTTATATTGTACTTATTATTTTTAGGGC [XGTACX_site723],8.42 ± 0.33
16,AGGATATATATATTCACACACACATGGAAATATATA [CACACA_site383],8.6 ± 0.42
17,TATGAATATCTATACACACACATATAAATACACGCT [CACACA_site6853],8.52 ± 0.36
18,TATCTTTTTTTTAATACACACAAATATATGAAAGTA [CACACA_site4161],8.35 ± 0.35
19,AATTCTGGCAAAATAACACACACATATATTTTATAT [CACACA_site9064],8.53 ± 0.59
20,GTTATAATTGAACTAGTGCATAAATATATTTTAATT [GTGCAC_site9851],8.71 ± 0.23
21,ATAAAGGAATTTTATACACACAACATATATATATAT [CACACA_site2861],10.1 ± 0.32
22,TTTTTTTTTACTAACTGTACTAAAGAAAAAAAAGGG [XGTACX_site3519],8.68 ± 0.37
23,GGGGGGGGAGGGTGAATACACACGTAATAATCATAA [CACACA_site1716],10.8 ± 0.15

row,Sequence,gcPBM binding intensity (ln)
1,ATATAAACACTGAATGCATGCACATATATATATATA [TGCATGCA_site940],10.45 ± 0.049
2,CGTATTATTATATAAACACACAAGGGGGCATGTATA [CACACA_site745],9.83 ± 0.042
3,ATGTGTATATGTGTGGGTACTTAATTTTTTTCTTTA [XGTACX_site5351],8.88 ± 0.48
4,ATTTGTATATACATATGTACACATGTAGGCTCATAA [XGTACX_site1709],8.72 ± 0.38
5,TTTCGTAAACTTTATGCACACACATATACATATTTC [CACACA_site8146],8.96 ± 0.13
6,TATATTAAAATAATCACACACATCAATTAATGGTAA [CACACA_site1234],8.41 ± 0.42
7,AGTATAACTTTTGCGCGTACACACATTTATCCTCTT [XGTACX_site429],9.7 ± 0.42
8,TTTGAATACTGAATGGTGCAAATTGTTCTCCCCATG,8.63 ± 0.16
9,TGTATATGGTTTGTGCAAAAATTTATTAATGTGTAA [TGCATGCA_negctrl_site374],8.64 ± 0.4
10,TACAAATGCGTATGTCAATATATGGAGAAATAAATA [TGCATGCA_negctrl_site290],8.62 ± 0.49
11,TATAATAATATTTACACACGCATATGTTATATATAT [CACACA_site1477],8.56 ± 0.4
12,AATTATGTGTGTCAATGTACACGATTTACATAATAT [XGTACX_site5150],8.52 ± 0.38
13,TGAAAAATATAAGGTTGTACTTACATCGGGAATAAT [XGTACX_site4701],8.72 ± 0.35
14,AATATATGGTTTCTTGATATTAAATTCAATTTAATG [CACACA_negctrl_site69],8.35 ± 0.5
15,ATAAATGAACAAGTGGCACACACACCGTATAACTAA [CACACA_site9047],8.76 ± 0.6
16,ATCCGTGGGTGAAATACACACATGATAATGTGAATG [CACACA_site4662],8.32 ± 0.52
17,AAAAAAAAAAAAAAAAGTACATATAATAAATAATGA [XGTACX_site7931],8.39 ± 0.42
18,TATATCTTAATATTTACACACATGCGCACCCATAAA [CACACA_site5349],9.12 ± 0.092
19,AATCTTTGTAATAAAAGTACATTAATTTTATTAATA [XGTACX_site8325],8.09 ± 0.16
20,ACACATACAACGTGGTGTACAAATAATTATAATCAA [XGTACX_site2287],8.61 ± 0.42
